Results: PubChem BioAssay AID624296 (National Center for Advancing Translational Sciences (NCATS), 2012)
Among all 350,000 compounds or so, about 9,900 (2.8%) were called active. Inconclusive means that the source gave no clear call. Such entries were picked first, then a sample of the others. The call rests on the fitted dose curve; in most records, active means well fitted activation curve with a large enough effect; inconclusive means small, poorly fitted or top-dose-only effect; inactive means no such curve, though single readings can be large or run the other way. Potencies of inconclusive entries are left out as doubtful fits.
Potency means the concentration at half of the fitted maximal effect; tags describe the fitted curve by direction and shape.

Test: A quantitative high throughput screen for small molecules that induce DNA re-replication in MCF 10a normal breast cells. Further: nearly all actives have a fitted effect of over 50% in size. On activity, positive = re-replication: % of control where 0% means no effect.
Conditions: MCF 10A DNA re-replication, Hoechst nuclear intensity, 48 h; activity, positive = re-replication: at 46.1 µM (top of the series)
In the case of `O=C1/C(=C/c2c[nH]c3ccccc23)CCC/C1=C\c1c[nH]c2ccccc12`, the Potency was active: 20.6 µM.
For `O=C(Nc1ccc(Br)cc1)c1cccc(N2C(=O)C3C4CCC(C4)C3C2=O)c1` (stereo unspecified), the Potency was inconclusive [activator, partial curve, poor fit].
For `COc1ccc(/C=C/C2=CC(C)(C)NC(=S)N2)cc1OC`, the Potency was inconclusive [activator, partial curve, poor fit].
In the case of `CNS(=O)(=O)c1cccc(C(=O)OCC(=O)/C=C2/N(C)c3ccccc3C2(C)C)c1`, the Potency was inconclusive [activator, partial curve].
With `COc1cccc(-c2ccc(SCc3ccccn3)nn2)c1` the “activity, positive = re-replication” value was inactive: -1.88%.
With `Cc1ccc(S(=O)(=O)N/N=C\C=C\c2ccccc2)cc1` the Potency was inconclusive [activator, partial curve, poor fit].
With `Cn1ccnc1C(O)c1ccccc1` (stereo unspecified) the “activity, positive = re-replication” value was inactive: 0.272%.
With `COCC(=O)Nc1ccc(Br)cc1C` the “activity, positive = re-replication” value was inactive: -0.335%.
In the case of `CCOC(=O)c1cc2c(c(CSc3nc4ccccc4c(=O)n3Cc3ccco3)c1)OCOC2`, the Potency was inconclusive [activator, full curve, poor fit].
For `Cc1ccc2nc3c(c(Nc4ccc(O)cc4)c2c1)CCC3`, the Potency was inconclusive [activator, partial curve, poor fit].
In the case of `CCCn1c(=N)c(S(=O)(=O)c2ccc(F)cc2)cc2c(=O)n3cccc(C)c3nc21`, the Potency was active: 5.17 µM.
In the case of `COc1ccc2[nH]c3c(=O)n(Cc4ccc(C(=O)N5CCC(C(N)=O)CC5)cc4)c(=S)[nH]c3c2c1`, the Potency was inconclusive [activator, single point].
In the case of `CSc1nc(C)cc(OCCNS(=O)(=O)c2cc(C)ccc2C)n1`, the Potency was inconclusive [activator, single point].
For `Oc1ccc(/C=N\Nc2cc(N3CCOCC3)nc(N3CCOCC3)n2)c(O)c1`, the Potency was inconclusive [activator, partial curve, poor fit].
In the case of `O=C1NC(=S)SC1=Cc1ccccc1Cl`, the Potency was active: 6.51 µM.
For `CCC(=O)N(CCC(Cc1ccccc1)c1ccc2c(c1)OCO2)Cc1ccccc1F` (stereo unspecified), the Potency was inconclusive [activator, partial curve, poor fit].
With `CC(C)(C)C(=O)COC(=O)c1cc(-c2cccnc2)nc2ccccc12` the Potency was inconclusive [activator, partial curve, poor fit].
For `COc1cccc2c(=O)c3cccc(N)c3[nH]c12`, the Potency was inconclusive [activator, single point].
In the case of `CCOC(=O)C1=C(C)C(c2ccccc2OC)NC(=O)N1` (stereo unspecified), the Potency was inconclusive [activator, partial curve, poor fit].
With `COc1cccc(NC(=O)CSc2nnc(C)s2)c1` the Potency was inconclusive [activator, partial curve, poor fit].
In the case of `COc1cccc(/C=N/NC(N)=S)c1OS(=O)(=O)c1ccccc1`, the “activity, positive = re-replication” value was inactive: -0.631%.
In the case of `CN(C)c1ccc(-c2c(-c3ccc4c(c3)OCO4)noc2-c2ccsc2)cn1`, the Potency was inconclusive [activator, full curve, poor fit].
With `O=S(=O)(O)c1cccc2cccc(Nc3ccccc3)c12` the Potency was active: 20.6 µM.
For `Cc1ccc(C(=O)C[n+]2cc(-c3ccc(C)cc3)n3c2CCCCC3)cc1`, the Potency was inconclusive [activator, partial curve, poor fit].
With `CCCCc1ccc(NC(=S)N2CCCC2)cc1` the “activity, positive = re-replication” value was inactive: 3.94%.
With `CC1CCCN(Cc2c(O)ccc3c2O/C(=C\c2ccco2)C3=O)C1` (stereo unspecified) the “activity, positive = re-replication” value was inactive: 4.6%.
In the case of `Nc1ccc[n+](CC(=O)c2ccccc2)c1`, the “activity, positive = re-replication” value was inactive: -1.42%.
For `COc1cc(NS(=O)(=O)c2ccc3ccccc3c2)c2ncccc2c1`, the Potency was active: 5.17 µM.
In the case of `CC(C)(C)c1cc(CCC(=O)NNC(=S)NC(=O)c2ccccc2)cc(C(C)(C)C)c1O`, the Potency was inconclusive [activator, single point].
In the case of `CCOC(=O)C1=C(C)N(C)C(=S)NC1c1ccc(Cl)cc1` (stereo unspecified), the “activity, positive = re-replication” value was inactive: 3.23%.
With `Cc1ccc(-n2c(C)cc(/C=C3\NC(=O)NC3=O)c2C)c(C)c1` the Potency was inconclusive [activator, partial curve, poor fit].
In the case of `Cc1ccc(-c2cc(Cc3ccccn3)c(=O)[nH]n2)cc1`, the Potency was inconclusive [activator, partial curve, poor fit].
In the case of `O=C(NCC1CCCCC1)C1CCN(C(=O)NC2CCCCC2)CC1`, the “activity, positive = re-replication” value was inactive: 1.49%.
In the case of `COc1ccc(C(=O)NNC(=S)NC(=O)c2cccs2)cc1`, the Potency was inconclusive [activator, single point].
In the case of `COc1ccc(/C=N/NC(=S)Nc2ccccc2)cc1COc1ccc(F)cc1F`, the Potency was inconclusive [activator, single point].
For `O=C1CN(C(=O)c2cccc([N+](=O)[O-])c2)CC(=O)N1`, the “activity, positive = re-replication” value was inactive: -14.8%.
With `COc1ccc2c(c1)C1(Nc3ccccc3C(=O)N1c1ccccc1)C(=O)N2` (stereo unspecified) the Potency was inconclusive [activator, single point].
For `Nc1nc(COC(=O)C2CCN(C(=O)c3ccc(Cl)cc3)CC2)nc(Nc2ccccc2)n1`, the “activity, positive = re-replication” value was inactive: 4.91%.
For `O=C(NCc1ccco1)c1cc2c(s1)CSC2`, the Potency was inconclusive [activator, single point].
In the case of `COc1ccc(NC(=O)CSc2ncnc3[nH]ncc23)cc1`, the Potency was inconclusive [activator, single point].
For `C=CC[C@@H](CC(=O)N(CCO)Cc1ccccc1)C(=O)NC[C@H](OC(=O)[C@@H](CC=C)Cc1ccc(F)cc1)c1ccccc1`, the Potency was inconclusive [activator, single point].
In the case of `Cc1ccc(N(CC(=O)NC2CCCCC2)C(=O)CNC(=O)c2ccco2)c(C)c1`, the “activity, positive = re-replication” value was inactive: 22.7%.
For `CCCn1c(N)c(N(CCOC)C(=O)c2cc(C)cc(C)c2)c(=O)[nH]c1=O`, the “activity, positive = re-replication” value was inactive: -33.7%.
For `COc1ccccc1NC(=O)O/N=C(\N)c1ccccc1`, the Potency was inconclusive [activator, single point].
In the case of `O=C(CNc1ccc(Br)cc1)NC(=O)NC1CCCCC1`, the “activity, positive = re-replication” value was inactive: 11.5%.
For `Cc1ccccc1C(=O)Nc1cccc(NC(=O)Cn2cnc3c(=O)n(C)c(=O)n(C)c32)c1`, the “activity, positive = re-replication” value was inactive: -0.0399%.
